Measurements taken from PubChem BioAssay AID686979 (National Center for Advancing Translational Sciences (NCATS), 2013).
In all, about 420,000 compounds went through this assay and about 50,000 (12%) were called active. This list was built around the results that the source calls inconclusive (neither active nor inactive); the mix of calls is not that of the screen. Calls come from the whole dose curve; as a rule, active = well fitted inhibition curve with a large enough effect; inconclusive = small, poorly fitted or top-dose-only effect; inactive = flat fitted curve, though single readings scatter. Potencies of inconclusive entries are left out as doubtful fits. Some compounds were tested as several samples or in several runs, with calls that do not always agree.
% is set by controls: 0 for no effect and ±100 for the full control effect; potency is the fitted concentration of half-maximal effect; tags give direction and shape of the fitted curve.

Test: qHTS for Inhibitors of human tyrosyl-DNA phosphodiesterase 1 (TDP1): qHTS in cells in presence of CPT; note: nearly all actives have a fitted effect of over 55% in size
Details: chicken DT40 Tdp1-/-;hTDP1 cells + 20 nM CPT, ATP luminescence, 48 h; activity change, negative = growth inhibition: at 46.2 µM (top of the series) unless noted
Outline: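 Cell growth measured by CellTiter-Glo luminescence after a minimum 48 h, 37 C compound exposure with 20 nM CPT in Tdp1-knockout DT40 cells stably expressing hTDP1, seeded 400/well; qHTS titration format.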
In the case of CCN(CC)C(=O)C(C)N1c2cccc3cccc(c23)S1(=O)=O (stereo not given), the Potency is reported as inconclusive [inhibitor, partial curve].
With Cc1cc(C)c(S(=O)(=O)N2CCN=C2c2ccccc2)c(C)c1 the Potency was inconclusive [inhibitor, single point].
For COc1ccc(C(C(=O)NC2CCCCC2)N(Cc2ccco2)C(=O)c2snc(C(N)=O)c2N)cc1 (stereo not given), the Potency was inconclusive [inhibitor, partial curve].
In the case of CC(C)(C)c1ccc(C(O)c2ncc(-c3ccc(F)cc3)[nH]2)cc1 (stereo not given), the Potency is reported as inconclusive [inhibitor, single point].
With O=C(NN=C1CCCC1)c1cccc(Br)c1 the Potency was “inactive”.
With Cc1onc(-c2ccccc2)c1C(=O)Nc1nnc(-c2ccncc2)s1 the Potency was “inactive”.
In the case of C=CCn1c(SCc2ccc(Cl)c(Cl)c2)nnc1C(CO)NC(=O)c1ccc(OC)cc1 (stereo not given), the Potency is reported as inconclusive [inhibitor, single point].
With COc1ccc(S(=O)(=O)N2CCN(c3cccc(C)c3C)CC2)cc1 the Potency was inconclusive [inhibitor, single point].
With CCCCCCNc1cc(C)oc(=O)c1C(C)=O the Potency was inconclusive [inhibitor, partial curve].
In the case of CCc1c(C2(O)CCCCC2)[nH]c2ccc(C(F)(F)F)cc12, the Potency is reported as active: 18.4 µM.
With O=C(NC1CCCC1)C(c1ccsc1)N(CCc1ccccc1)C(=O)Cc1cccs1 (stereo not given) the Potency was inconclusive [inhibitor, single point].
For CCC(=O)NCCc1nc2ccccc2n1Cc1ccccc1, the Potency was inconclusive [inhibitor, single point].
For CNCCCCOc1ccccc1-c1ccccc1, the Potency was active: 25.9 µM.
With CCOC(=O)c1c(N)ssc1=S the Potency was “inactive”.
For Cc1ccc(Cl)cc1NC(=O)C1CCN(c2nnc(C)c3c(C)n(-c4ccccc4)nc23)CC1, the Potency was active: 8.2 µM.
In the case of CN(C)S(=O)(=O)c1ccc(C(=O)N2CCN(S(=O)(=O)c3ccc4c(c3)OCCO4)CC2)cc1, the Potency is reported as inconclusive [inhibitor, single point].
With S=C(NCc1ccc(Cl)cc1)NC12CC3CC(CC(C3)C1)C2 the Potency was inconclusive [inhibitor, single point].
With Cc1ccc(S(=O)(=O)Nc2cc3c4c(c2)CCN4C(=O)CC3)cc1 the Potency was “inactive”.
In the case of O=C(NCc1ccncc1)c1ccc2nc(Cc3ccccc3F)oc2c1, the Potency is reported as active: 25.9 µM.
With CN(C)c1ccc(CNC(=O)c2ccc(Cn3c(SCc4ccccc4)nc4cccnc43)cc2)cc1 the Potency was inconclusive [inhibitor, single point].
In the case of CNc1cc(F)nc(F)n1, the Potency is reported as active: 18.4 µM.
In the case of CCC1([N+](=O)[O-])COC(c2ccc(Cl)cc2)OC1 (stereo not given), the Potency is reported as “inactive”.
For CCc1nc2ccc(C(=O)NCCCN3CCCC3=O)cn2c1N(C)Cc1ccc(OC)cc1, the Potency was active: 16.4 µM.
With Cc1ccccc1CNC(=O)c1ccc2c(c1)c(C)c(C)n2C the Potency was inconclusive [inhibitor, single point].
In the case of CCOc1ccc(NC(=O)C2CCC(CNc3c(N4CCCCC4)c(=O)c3=O)CC2)cc1 (stereo not given), the activity change, negative = growth inhibition is reported as inconclusive: -31.9% [inhibitor].
With COc1cccc(CN(C)C(=O)c2ccc(S(=O)(=O)N3CCCC3)cc2)c1OC the Potency was inconclusive [inhibitor, single point].
For O=C(O)c1cccc(-n2c(/C=C/c3ccccc3)nc3ccccc3c2=O)c1, the Potency was inconclusive [inhibitor, partial curve].
With Cc1cc(C)c(Cn2c3ccccc3c3cnn(CC(=O)NCc4cccs4)c(=O)c32)c(C)c1 the Potency was active: 14.6 µM.
For COc1ccccc1-n1c(SCC(=O)Nc2cc(C)on2)nc2c([nH]c3ccccc32)c1=O, the Potency was inconclusive [inhibitor, single point].
In the case of COc1ccc(NS(=O)(=O)c2cn(C)c(=O)n(C)c2=O)cc1, the Potency is reported as “inactive”.
In the case of N#Cc1ccccc1OCc1cn(CC(=O)c2ccc(O)cc2)nn1, the Potency is reported as inconclusive [inhibitor, single point].
With Cc1ccccc1N1CCN(Cc2nc(Cc3ccccc3F)no2)CC1 the Potency was inconclusive [inhibitor, partial curve, poor fit].
In the case of COc1ccc(C2CC(c3cccc(Br)c3)=NN2c2ccc(S(N)(=O)=O)cc2)cc1 (stereo not given), the Potency is reported as active: 25.9 µM.
For FC(F)Oc1ccccc1C1CC(c2ccc(Br)s2)Nc2ncnn21 (stereo not given), the Potency was active: 11.6 µM.
With COc1cccc(C(C)NC(=O)Nc2cccc(C(F)(F)F)c2)c1 (stereo not given) the Potency was active: 20.6 µM.
For CCOc1ccc(-c2nc(-c3ccccc3)no2)cc1OCC, the Potency was inconclusive [inhibitor, partial curve].
For CCOc1ccccc1N=C1SCC(C)N1C(=O)C1CCN(c2ncnc3sc(C)c(C)c23)CC1 (stereo not given), the Potency was active: 20.6 µM.
For Cc1ccc(S(=O)(=O)Nc2cc(Cl)c(O)cc2C)cc1, the Potency was inconclusive [inhibitor, single point].
With COc1ccc([C@@H](C)NC(=O)c2ccc3oc(C(C)C)nc3c2)cc1 the Potency was inconclusive [inhibitor, single point].
In the case of Cc1ccccc1Cn1nnc2c(=O)[nH]c(C3CCN(C(=O)c4ccc(F)cc4)CC3)nc21, the Potency is reported as inconclusive [inhibitor, single point].
For O=C(NCCC(=O)N1CCN(Cc2c(F)cccc2Cl)CC1)c1ccc(Cl)cc1, the Potency was inconclusive [inhibitor, single point].
In the case of CCOC(=O)Cc1csc(NS(=O)(=O)c2ccc(C(F)(F)F)cc2)n1, the Potency is reported as “inactive”.
For O=C(NCCc1ccc(F)cc1)c1ccc(S(=O)(=O)N2CCCCC2)cc1, the Potency was inconclusive [inhibitor, single point].
For Cc1ccc(Cn2c(N3CCCCCC3)nc3c2c(=O)[nH]c(=O)n3C)cc1, the Potency was “inactive”.
With CCOc1ccccc1NC(=O)CSC1=NN2CCCC(=O)N=C2S1 the Potency was “inactive”.
For Cc1cc(F)ccc1S(=O)(=O)NCC(c1cccnc1)N1CCc2ccccc21 (stereo not given), the Potency was inconclusive [inhibitor, single point].
For CC(=O)c1ccc(Nc2cc(C)nc3c(C)cccc23)cc1, the Potency was active: 1.3 µM.
For Cc1ccc(SCc2ccc(C(=O)Nc3cc([N+](=O)[O-])ccc3C)cc2)cc1, the Potency was “inactive”.
For COc1cc2sc(-c3ccc(S(C)(=O)=O)cc3)c(C#CCO)c2cc1OC, the Potency was inconclusive [inhibitor, single point].
With CC1(C)NC(=O)N(CC(=O)Nc2cc(C(F)(F)F)cc(C(F)(F)F)c2)C1=O the Potency was “inactive”.
With CC(=O)Nc1ccc(Sc2ncccc2C(=O)Nc2cc(Cl)cc(Cl)c2)cn1 the Potency was inconclusive [inhibitor, single point].
With COC(=O)NC(Nc1sc2c(c1C(N)=O)CCCC2)(C(=O)OC)C(F)(F)F (stereo not given) the Potency was “inactive”.
With Cn1c(=O)c(-c2ccc(F)cc2)nc2cnc(N3CCOCC3)nc21 the Potency was “inactive”.
In the case of CCN(CC)C(=S)NC(=O)c1cccnc1, the Potency is reported as inconclusive [inhibitor, single point].
In the case of O=C(Nc1ccc(S(=O)(=O)NC2=NCCCCC2)cc1)c1ccc2ccccc2n1, the Potency is reported as inconclusive [inhibitor, single point].
In the case of CCOc1ccc(CN2CCN(C(=O)c3ccco3)CC2)cc1, the Potency is reported as inconclusive [inhibitor, single point].
In the case of COc1ccc(CCn2c(C(C)C)nc3oc4ccccc4c(=O)c3c2=O)cc1, the Potency is reported as inconclusive [inhibitor, single point].
In the case of CCCN1C(=O)C(NC(C)=O)c2cc(OC)ccc21 (stereo not given), the Potency is reported as inconclusive [inhibitor, single point].
In the case of CCOC(=O)c1csc(-c2snnc2C)n1, the Potency is reported as “inactive”.
With COc1ccccc1N1CCN(C2CCCN(C(=O)c3ccoc3C)C2)CC1 (stereo not given) the Potency was “inactive”.
In the case of Cc1ccc(S(=O)(=O)N(C)C[C@@H]2OCCCC[C@H](C)Oc3ccc(NC(=O)Nc4ccc(F)cc4)cc3C(=O)N([C@H](C)CO)C[C@H]2C)cc1, the Potency is reported as active: 13 µM.
In the case of C=CCOn1c(=O)c(-c2ccc(OC)cc2)[n+]([O-])c2ccccc21, the Potency is reported as “inactive”.
For CCC(C)NC(=O)CCCN1C(=O)CCn2nc(-c3cccn3C)cc21 (stereo not given), the Potency was “inactive”.
With COc1ccc(-c2ccc3c(N)c(C(=O)c4ccc(OC)c(OC)c4)sc3n2)cc1 the Potency was active: 9.2 µM.
For O=C(CSc1nc(-c2ccccc2)c(-c2ccccc2)o1)N1CCCCC1, the Potency was inconclusive [inhibitor, single point].
For Cc1[nH]c2c(C)cccc2c(=O)c1Br, the Potency was inconclusive [inhibitor, partial curve, poor fit].
With O=[N+]([O-])c1ccccc1CNC(Cc1ccccc1)c1ccccc1 (stereo not given) the Potency was “inactive”.
In the case of C[N+]1(C2CCC3CCCC2C3O)CCCC1 (stereo not given), the Potency is reported as “inactive”.
With COc1cccc(C(=O)Nc2ccc(S(=O)(=O)NCc3ccco3)cc2)c1 the Potency was inconclusive [inhibitor, partial curve, poor fit].
With CSc1ccc(C#N)cc1NC(=O)c1ccccc1C the Potency was “inactive”.
With CCNC(=O)[C@H]1O[C@H](n2cnc3c(N)nc(NCCc4ccc(CCC(=O)O)cc4)nc32)[C@@H](O)[C@@H]1O the Potency was “inactive”.
With COc1ccc(Nc2ccc3c(c2)=NC2(CCCCC2)[N+]=3[O-])cc1 the Potency was active: 2.59 µM.
In the case of COC(=O)c1cc(OC)c(OC)cc1N, the Potency is reported as “inactive”.
In the case of CCOC(=O)C1(CCOc2ccccc2)CCN(Cc2ccc(C(=O)OC)cc2)CC1, the Potency is reported as inconclusive [inhibitor, single point].
With CN(C(=O)c1cnn(-c2nccc(-c3ccccc3C(F)(F)F)n2)c1C1CC1)C1CCOC1 (stereo not given) the Potency was inconclusive [inhibitor, single point].
